Some of the results follow. At the low end of the ranking, values are background and their order means little.
Test system: T1, GST-NbGlk1(82-244)
T1 sequence: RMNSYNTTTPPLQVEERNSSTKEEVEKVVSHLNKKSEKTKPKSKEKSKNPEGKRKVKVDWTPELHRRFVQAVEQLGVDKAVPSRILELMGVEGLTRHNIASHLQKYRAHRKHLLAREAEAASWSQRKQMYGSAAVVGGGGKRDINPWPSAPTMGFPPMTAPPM
Assay: protein-binding microarray;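 note: rank-based score ranging −0.5 to +0.5 with E above 0.45 taken as significant binding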
Conditions: NbGlk1 is a Golden2-like transcription factor of Nicotiana benthamiana; high values mean tight binding; most listed sequences are background and not binding sites; double strand, one strand shown

Sequence	binding signal
AGCGTCAA	-0.00194 E-score
AGTCGTGC	-0.0277 E-score
AATTATGC	0.0787 E-score
AGAGACCA	-0.14 E-score
CACTATCG	0.134 E-score
ATGTCAAT	0.0149 E-score
AGACACGC	-0.201 E-score
AAGAATCG	0.374 E-score
CACTGCTA	-0.108 E-score
AATACACG	0.0796 E-score
AGTCAGAT	0.208 E-score
ACAGGTGG	-0.18 E-score
AATCATTG	0.12 E-score
AAGCGTCC	-0.299 E-score
ACCCTCCT	-0.181 E-score
ATTAGCAA	0.169 E-score
AAGAATCT	0.449 E-score
AACATTTA	0.113 E-score
CACTGAAG	-0.19 E-score
AAGACCGG	-0.204 E-score
ACATCAGT	-0.0817 E-score
AGCCGATA	0.197 E-score

Sequence	binding signal
ATGATCGC	0.232 E-score
ACCCGTAT	0.063 E-score
ATGCATTC	0.0555 E-score
AAGTTATT	0.155 E-score
ATGTGCTC	-0.0577 E-score
ATTCCCTA	0.367 E-score
AGAGTGCT	-0.124 E-score
ATTGGGTG	-0.0727 E-score
AACAACTG	-0.065 E-score
ACTGGGAC	-0.244 E-score
AAGGTTTA	-0.00355 E-score
AAGCCAGC	-0.205 E-score
ATTTCCTC	0.309 E-score
ATTTGGAG	0.0649 E-score
CAACATAA	0.063 E-score
ACGACTCA	0.0342 E-score
ACGTTCCT	-0.0714 E-score
AGTGTATA	0.0911 E-score
ATACAGTC	-0.13 E-score
AAGACACG	-0.0512 E-score
AGGCTCTA	-0.188 E-score
AAACGCCG	-0.142 E-score

Sequence	binding signal
ATTAATCC	0.147 E-score
ATCCCGAA	0.173 E-score
AAGTTGGT	-0.0974 E-score
AATATAAC	0.178 E-score
AGGTCACC	-0.38 E-score
ATGTTAAG	-0.033 E-score
ATTACAAC	0.257 E-score
ATGCGAGC	-0.147 E-score
AGCTGCAG	-0.102 E-score
AGTGATTA	0.245 E-score
AAGGCTAC	-0.224 E-score
ATTCGCTA	0.301 E-score
CAAAATAG	0.192 E-score
ATTCGTGA	0.133 E-score
ATGCTTAA	0.0953 E-score
ATGATATA	0.108 E-score
ATGTTGGA	0.101 E-score
CAAACAAC	-0.0175 E-score
AACCGGGC	-0.258 E-score
CACATGCA	-0.0308 E-score
ATGGTTGG	-0.133 E-score
ATTGCCCA	0.162 E-score

Sequence	binding signal
AATTGACC	-0.121 E-score
CAAAGATA	0.225 E-score
AACGCTGT	-0.112 E-score
AAGAAAAT	0.34 E-score
CACATTGC	-0.0627 E-score
CAGAAGAG	-0.13 E-score
AGACCCAG	-0.276 E-score
AAATCCTG	0.422 E-score
ACCGTGCG	-0.0682 E-score
AACGGTCT	-0.158 E-score
CAGACAAC	-0.0963 E-score
AGTTACAC	-0.0648 E-score
AGCGGACG	-0.151 E-score
CACAAAAA	0.132 E-score
ACCGTGCC	-0.125 E-score
AAAGTTTG	0.104 E-score
ACCCCAGC	-0.125 E-score
AATTAAAC	-0.0201 E-score
AGGCGCCA	-0.189 E-score
ACGGTAGT	-0.0515 E-score
ACGAAAAC	-0.112 E-score
ACGTATGG	-0.217 E-score

Sequence	binding signal
AGGAGTGG	-0.238 E-score
AAACCCCC	-0.373 E-score
AAGTATGC	0.036 E-score
ATGGCCCC	-0.206 E-score
ATCAGAAG	0.24 E-score
ATCCAGGG	0.18 E-score
ATACCGAC	0.0979 E-score
AGGAATGG	-0.0922 E-score
ACGATGGA	0.0311 E-score
CACCCTTA	-0.153 E-score
CAAGTAGG	-0.0409 E-score
ACTATGTG	0.0279 E-score
ACACTCTC	-0.105 E-score
AGCTCGAG	-0.000709 E-score
ATGGGTTC	-0.14 E-score
AATGAGAC	-0.183 E-score
ACGGCCTA	-0.0874 E-score
AGGGCGTG	-0.254 E-score
ACAGTAAC	-0.0361 E-score
ATCGGTAA	0.201 E-score
ACGAGAGT	-0.148 E-score
